Data taken from PubChem BioAssay AID1347165 (National Center for Advancing Translational Sciences (NCATS), 2019).
Among all 220,000 compounds or so, about 5,700 (2.6%) were called active. This list was built around the results that the source calls inconclusive (neither active nor inactive); the mix of calls is not that of the screen. The call rests on the fitted dose curve; in most records, active means well fitted inhibition curve with a large enough effect; inconclusive means small, poorly fitted or top-dose-only effect; inactive means no such curve, though single readings can be large or run the other way. A potency beside an inconclusive call is a rough fit, not a confirmed value.

target: Lysine-specific demethylase 5B (Homo sapiens) (UniProt Q9UGL1); assay: Primary screen for KDM5B Histone Demethylases FDH-coupled qHTS; conditions: FDH-coupled NADH fluorescence (FDH is formaldehyde dehydrogenase); activity change, negative = inhibition: at 57.7 µM (top of the series) unless noted; further: nearly all actives have a fitted effect of over 70% in size; on activity change, negative = inhibition: 0% is about no effect
UniProt Q9UGL1, sequence (Q9UGL1 whole entry, looked up): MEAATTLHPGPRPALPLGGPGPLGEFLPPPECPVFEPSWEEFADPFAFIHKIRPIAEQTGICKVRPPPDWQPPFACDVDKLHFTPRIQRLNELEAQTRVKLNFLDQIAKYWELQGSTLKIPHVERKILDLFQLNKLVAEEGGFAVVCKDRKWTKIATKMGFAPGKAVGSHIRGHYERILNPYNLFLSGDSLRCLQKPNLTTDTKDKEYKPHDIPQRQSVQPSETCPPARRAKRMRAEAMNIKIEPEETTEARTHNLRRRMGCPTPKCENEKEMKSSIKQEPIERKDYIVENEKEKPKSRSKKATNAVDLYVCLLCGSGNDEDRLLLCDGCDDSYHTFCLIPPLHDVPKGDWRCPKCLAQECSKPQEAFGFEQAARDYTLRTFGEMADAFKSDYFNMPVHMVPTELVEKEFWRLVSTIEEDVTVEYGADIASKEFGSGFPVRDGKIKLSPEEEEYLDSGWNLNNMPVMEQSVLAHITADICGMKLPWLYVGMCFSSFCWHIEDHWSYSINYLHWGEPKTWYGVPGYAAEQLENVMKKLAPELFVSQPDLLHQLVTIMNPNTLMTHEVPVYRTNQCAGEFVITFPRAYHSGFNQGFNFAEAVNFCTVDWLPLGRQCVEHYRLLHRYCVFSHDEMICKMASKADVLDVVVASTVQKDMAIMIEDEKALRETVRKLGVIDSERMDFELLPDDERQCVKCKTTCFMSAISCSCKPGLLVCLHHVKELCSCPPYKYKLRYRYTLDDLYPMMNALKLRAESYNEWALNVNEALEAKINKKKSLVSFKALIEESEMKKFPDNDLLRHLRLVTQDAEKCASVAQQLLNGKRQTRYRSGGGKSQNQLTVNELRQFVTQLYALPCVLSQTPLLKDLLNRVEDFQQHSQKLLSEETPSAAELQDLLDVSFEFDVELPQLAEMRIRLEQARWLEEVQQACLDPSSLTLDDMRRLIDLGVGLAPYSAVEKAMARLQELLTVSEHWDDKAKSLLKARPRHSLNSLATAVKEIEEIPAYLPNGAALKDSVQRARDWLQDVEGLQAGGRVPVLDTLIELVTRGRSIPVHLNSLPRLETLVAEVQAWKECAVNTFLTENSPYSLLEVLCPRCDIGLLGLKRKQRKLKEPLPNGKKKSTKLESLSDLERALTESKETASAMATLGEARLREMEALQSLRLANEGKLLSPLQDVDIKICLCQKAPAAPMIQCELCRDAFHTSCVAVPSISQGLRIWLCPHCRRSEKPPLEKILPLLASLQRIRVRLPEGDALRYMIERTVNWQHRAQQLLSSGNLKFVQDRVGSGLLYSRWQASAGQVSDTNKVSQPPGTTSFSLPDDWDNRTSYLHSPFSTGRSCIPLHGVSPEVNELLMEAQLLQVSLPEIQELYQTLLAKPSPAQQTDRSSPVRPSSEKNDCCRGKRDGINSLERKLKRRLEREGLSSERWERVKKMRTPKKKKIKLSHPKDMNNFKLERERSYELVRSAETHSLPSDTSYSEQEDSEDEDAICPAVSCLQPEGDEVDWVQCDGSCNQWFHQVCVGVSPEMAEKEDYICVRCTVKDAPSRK
In short: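 Measured: NADH fluorescence change, 30 min, RT. System: KDM5BΔAP 200 nM final, H3K4me3 peptide, α-KG, Fe(II), ascorbate, NAD⁺ plus FDH, pH 7.5 HEPES. Compounds: titrated, 10 min pre-incubation with enzyme.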
Potency means the concentration at half of the fitted maximal effect; tags describe the fitted curve by direction and shape.

| SMILES | activity change, negative = inhibition | Potency |
| --- | --- | --- |
| COc1ccc(C(CC(=O)Nc2ccc(C)c(C)c2)N2Cc3ccccc3C2=O)cc1OC (stereo not drawn) | inactive: -22% | – |
| CC(=O)NC1(C)CCN(Cc2ccc(-c3ccc([S+](C)(=O)[O-])cc3)cc2)C1 (stereo not drawn) | – | inconclusive: 39.8 µM [inhibitor, single point] |
| Cc1ccc2[nH]c3c(c2c1)CN(C(=O)CN1CCCCC1)CC3 | – | inconclusive: 35.5 µM [inhibitor, single point] |
| NC(=O)c1ccc(NC(=O)C2CC(=O)N(c3n[nH]c4ccccc34)C2)cc1 (stereo not drawn) | – | inconclusive: 28.2 µM [inhibitor, partial curve, poor fit] |
| Cc1cccc(/N=C/c2ccc([N+](=O)[O-])cc2)n1 | – | inconclusive: 31.6 µM [inhibitor, single point] |
| Cn1cc(CN2CCn3c(nnc3[C@@H]3C[C@@H](O)CN3Cc3cccnc3)C2)c2ccccc21 | – | inconclusive: 15.8 µM [inhibitor, partial curve, poor fit] |
| NC(=O)Cc1c[nH]c2ncc(-c3ccccc3F)cc12 | – | active: 35.5 µM |
| Cc1cc(C)n2nc(C(=O)N3CCN4C(=O)CN(C)C(=O)C4C3)cc2n1 (stereo not drawn) | – | active: 28.2 µM |
| N#CCC(=O)Nc1ccc(C(=O)OCc2ccc(Cl)c(Cl)c2)cc1 | inactive: 12.6% | – |
| CN1c2ccccc2-c2nc(SCC(=O)Nc3ccccc3C(F)(F)F)ncc2S1(=O)=O | – | inconclusive: 35.5 µM [inhibitor, partial curve, poor fit] |
| CCOc1ccc2nc(C)cc(Nc3ccc(C(=O)OC)cc3)c2c1 | – | inconclusive: 22.4 µM [inhibitor, partial curve, poor fit] |
| COCc1ccc2c(c1)c(OC(C)(C)C(=O)N1CCN(C)CC1)nn2CCC(C)C | – | inconclusive: 35.5 µM [inhibitor, partial curve, poor fit] |
| CCCCN1CCN(C(=O)c2cc3cn(C4CC4)cc3s2)CC1 | – | inconclusive: 10 µM [inhibitor, partial curve] |
| Cc1cc(OC(=O)c2cc(-c3ccc4c(c3)OCCO4)on2)ccc1Cl | – | inconclusive: 1.41 µM [inhibitor, full curve, poor fit] |
| COc1ccc2c(c1)-c1nc(NC(=O)c3cc(Cl)ccc3OC)sc1CC2 | – | inconclusive: 15.8 µM [inhibitor, partial curve, poor fit] |
| CCCCc1nc2sc3c(NCC(C)O)ncnc3c2c2c1CCC2 (stereo not drawn) | – | inconclusive: 25.1 µM [inhibitor, partial curve, poor fit] |
| Cc1ccc(CN2CCCn3nc(C(=O)NCCc4ccc(Cl)cc4)cc3C2=O)cc1 | – | inconclusive: 31.6 µM [inhibitor, partial curve, poor fit] |
| CCC1(C(=O)NCc2ccc(OC(C)C)cc2)CCCCC(=O)N1 (stereo not drawn) | – | inconclusive: 28.2 µM [inhibitor, partial curve, poor fit] |
| COc1cc(/C=C(\C#N)C(=O)Nc2cccc(C(=O)O)c2)ccc1OCc1ccc(C)cc1 | – | inconclusive: 39.8 µM [inhibitor, single point] |
| CCCNC(=O)N[C@@H]1CCC[C@@H](C(=O)NCc2ccc(OC)cc2)CC(=O)N(C)C1 | – | inconclusive: 35.5 µM [inhibitor, single point] |
| COc1ccc2[nH]c3c(c2c1)CCNC31CCN(C(=O)c2cccnc2C)CC1 | – | inconclusive: 31.6 µM [inhibitor, partial curve, poor fit] |
| COc1cccc(C(=O)N[C@@H]2CN(c3ncccn3)C[C@H]2CN(C)C)c1C | – | active: 31.6 µM |
| OCc1ccc(CN2C[C@H](O)C[C@H]2c2nc(Cc3ccc(F)cc3Cl)no2)o1 | – | inconclusive: 28.2 µM [inhibitor, single point] |

| SMILES | activity change, negative = inhibition | Potency |
| --- | --- | --- |
| Cc1ccc(Cl)cc1NC(=O)c1nc2ccccc2nc1N1CCN(C)CC1 | inactive: -0.417% | – |
| Cc1ccccc1CNC(=O)c1ccc(-c2nc(CS(=O)(=O)c3ccccc3)c(C)o2)cc1 | – | inconclusive: 31.6 µM [inhibitor, partial curve, poor fit] |
| Cc1nn(CC(=O)NC(C)(C)C)c(C)c1S(=O)(=O)N1CCCC(C(=O)N2CCN(C)CC2)C1 (stereo not drawn) | inactive: -9.57% | – |
| COc1ccc(OC)c(NC(=O)COC(=O)c2cc(C)nc3ccccc23)c1 | inactive: 18.3% | – |
| COc1cccc(CNC(=O)N2CCCC3(C2)Nc2cccnc2NC3=NC2CCCC2)c1 (stereo not drawn) | – | active: 28.2 µM |
| CCC(C)NC(=O)c1ccc(-n2c(-c3ccccc3)cc3c2CCCC3)cc1 (stereo not drawn) | – | inconclusive: 2.51 µM [inhibitor, partial curve, poor fit] |
| COC(=O)c1cc(NC(=O)Cn2nc(C)n3cccc3c2=O)cc(C(=O)OC)c1 | – | inconclusive: 15.8 µM [inhibitor, partial curve, poor fit] |
| CCCc1nc2sc3c(=O)[nH]cnc3c2c2c1CCCC2 | inactive: 15.5% | – |
| COC(=O)CSc1cccc2c1C(=O)CC2c1ccccc1 (stereo not drawn) | inactive: 0.105% | – |
| c1ccc2sc(N3CCCN(Cc4cc5n(n4)CCNC5)CC3)nc2c1 | – | inconclusive: 12.6 µM [inhibitor, partial curve] |
| O=C(N[C@H](C1CCNCC1)C1CC(O)C1)c1cccc(=O)[nH]1 (stereo partly drawn) | – | active: 22.4 µM |
| O=C(NCC1CCN(c2cc(-c3ccc(F)cc3)[nH]n2)CC1)c1c[nH]c2ccccc12 | – | inconclusive: 25.1 µM [inhibitor, single point] |
| COc1ccc(C(=O)N2CCC3(CC2)NC(=O)N(c2ccccc2Cl)N3)cc1F | – | inconclusive: 28.2 µM [inhibitor, partial curve, poor fit] |
| Cc1cc(F)cc(CN2CCc3nc(C(=O)Nc4ccccc4)oc3CC2)c1 | – | active: 28.2 µM |
| CN(C(=O)CSc1nnc(-c2ccccc2F)o1)C1(c2ccccc2Cl)CCCCC1=O (stereo not drawn) | – | inconclusive: 35.5 µM [inhibitor, single point] |
| Cc1nc2sc3c(c2c2nc(C(=O)NCCN(C)C)nn12)CCC3 | – | inconclusive: 39.8 µM [inhibitor, single point] |
| Cc1cccc(C(=O)NCCc2sc(-c3ccccc3)nc2C)c1 | – | inconclusive: 35.5 µM [inhibitor, single point] |
| COc1nn(C)c2nc(C)c(CCC(=O)NC(C)C)c(C)c12 | – | inconclusive: 22.4 µM [inhibitor, partial curve, poor fit] |
| CCCC(=O)N1Cc2ccccc2CC2(CCCCN2Cc2ccncc2)C1 (stereo not drawn) | – | inconclusive: 50.1 µM [inhibitor, partial curve] |
| Cc1c(CC(=O)NC2CCOCC2)c2c(n1Cc1ccccc1F)CCCC2=O | – | inconclusive: 5.62 µM [inhibitor, partial curve] |
| COc1cc2c(cc1NS(=O)(=O)c1cccc(C#N)c1)n(C)c(=O)n2C | – | inconclusive: 22.4 µM [inhibitor, single point] |
| Cc1ccccc1N1Cc2c(NCc3ccccn3)ncnc2N(C)CC1=O | – | inconclusive: 11.2 µM [inhibitor, partial curve] |
| Cn1nc(-c2ccc(NC3CCCCC3)c([N+](=O)[O-])c2)c2ccccc2c1=O | inactive: 13.9% | – |

| SMILES | activity change, negative = inhibition | Potency |
| --- | --- | --- |
| O=S1(=O)NCC2(CCN(Cc3ccoc3)CC2)Oc2ncccc21 | – | active: 50.1 µM |
| Brc1ccccc1-c1nc(-c2ccncc2)no1 | inactive: 15.5% | – |
| Cc1nc(CCNS(=O)(=O)c2cccnc2)no1 | inactive: -10.3% | – |
| CCOC(=O)c1cnc2ccc(OC)cc2c1Nc1cccc(Cl)c1C | – | inconclusive: 31.6 µM [inhibitor, single point] |
| N#C/C(=C/c1ccccc1)C(=O)OCC(=O)N1CCc2ccccc2C1 | – | inconclusive: 25.1 µM [inhibitor, partial curve, poor fit] |
| O=C(O)C[C@@H]1CCN(C(=O)c2ccc(C(F)(F)F)cc2)C[C@@H]1CCN1CCCCC1 | inactive: -6.1% [at 86.2 µM] | – |
| CCc1ccc2oc(=O)cc(CN3CCN(CC(=O)N(C)C4CCCCC4)CC3)c2c1 | inactive: 4.89% | – |
| COc1ccc2nc3n(c2c1)[C@@H](CNC(=O)C1CCOCC1)COC3 | – | active: 39.8 µM |
| Cc1ccccc1CN1Cc2nc(Nc3ccccc3)ccc2OCC1=O | – | inconclusive: 28.2 µM [inhibitor, partial curve, poor fit] |
| CN1c2cc(C(=O)NCc3nc4ccccc4n3C)ccc2C(=O)N2CCCCCC21 (stereo not drawn) | – | inconclusive: 25.1 µM [inhibitor, partial curve, poor fit] |
| CC(=O)Nc1cccc(-c2cn(C)c(=O)n3cc(CN4CCNC(=O)C4)nc23)c1 | inactive: -9.2% [at 86.2 µM] | – |
| COc1ccccc1C(=O)NC1CCN(c2cc(-c3cccs3)[nH]n2)CC1 | – | inconclusive: 17.8 µM [inhibitor, partial curve, poor fit] |
| COc1cc(F)cc(-c2cccc(COc3cnc4c(ccn4CC(=O)O)c3)c2)c1 | – | active: 35.5 µM |
| C=CCCC(CN1CCOCC1)Oc1nccc(N(C)CC)n1 (stereo not drawn) | inactive: 22% | – |
| CN1Cc2cccn2CC1CNC(=O)Nc1cccc(F)c1 (stereo not drawn) | – | inconclusive: 22.4 µM [inhibitor, single point] |
| O=C(Nc1cccc(NC(=O)C2CCCC2)c1)C1CCCC1 | inactive: 9.55% | – |
| Cc1cccc(/C=N/NC(=O)c2cccs2)c1 | inactive: 9.13% | – |
| Cc1ccc(-c2cc3c(=O)n(CCNC(=O)c4ccc(Cl)cc4)ccn3n2)cc1C | – | active: 14.1 µM |
| O=C(O)CNC(=O)c1ccc(-c2ccccc2)cc1 | inactive: 10.4% | – |
| Cc1ccc(CNC(=O)c2ccc(CSCc3ccc(Cl)cc3)o2)cc1 | – | inconclusive: 4.47 µM [inhibitor, full curve, poor fit] |
| C[C@H]1CN(C(=O)Nc2ccc(F)cc2F)C[C@@H]1c1nc(-c2ccccc2)no1 | – | inconclusive: 6.31 µM [inhibitor, single point] |
| CC(C)OC(=O)NCCOC(N)=O | inactive: -9.83% | – |
